Here are results for 1 molecule from the supplement of paper PMC8728848.

Common to all, as to test: glycan array binding signal (z-score within array); higher = stronger binding
Holding throughout (settings): glycan notation: IUPAC condensed, linker removed

The target of one experiment is Gal(b1-4)Glc. A digest of the protocol: (§1)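 Glycan array data were curated from 3228 arrays in the Consortium for Functional Glycomics database and kept only where the protein sequence was available. Glycan names were converted to IUPAC-condensed notation, and columns mapping to the same glycan were averaged. The binding signal is a within-array Z-score, averaged across arrays of the same protein sequence at different concentrations or buffers and across linkers. Negative Z-scores can be read as non-binding.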

The next experiment has as its target Gal(b1-4)Glc6S. A digest of the protocol:
as §1

A further experiment has as its target Gal(b1-4)GlcNAc. A digest of the protocol:
as §1

For experiment [1], the target named is Gal(b1-4)GlcNAc(a1-6)Gal(b1-4)GlcNAc. In short, it runs like this: as §1
For another experiment, the target named is Gal(b1-4)GlcNAc(b1-2)Man. A digest of the protocol: as §1
The target of experiment [2] is Gal(b1-4)GlcNAc(b1-2)Man(a1-3)Man(b1-4)GlcNAc(b1-4)GlcNAc. A digest of the protocol:
as §1

For experiment [3], the target named is Gal(b1-4)GlcNAc(b1-2)Man(a1-3)[Gal(b1-4)GlcNAc(b1-2)Man(a1-6)]Man(b1-4)GlcNAc(b1-4)GlcNAc. A digest of the protocol: as §1
For experiment [4], the target named is Gal(b1-4)GlcNAc(b1-2)Man(a1-3)[Gal(b1-4)GlcNAc(b1-2)Man(a1-6)]Man(b1-4)GlcNAc(b1-4)[Fuc(a1-6)]GlcNAc. In short, it runs like this:
as §1

Experiment [5] has as its target Gal(b1-4)GlcNAc(b1-2)Man(a1-3)[Gal(b1-4)GlcNAc(b1-2)Man(a1-6)][Gal(b1-4)GlcNAc(b1-4)]Man(b1-4)GlcNAc(b1-4)[Fuc(a1-6)]GlcNAc. In short, it runs like this: as §1
Experiment [6] concerns the target Gal(b1-4)GlcNAc(b1-2)Man(a1-3)[Gal(b1-4)GlcNAc(b1-2)Man(a1-6)][GlcNAc(b1-4)]Man(b1-4)GlcNAc(b1-4)[Fuc(a1-6)]GlcNAc. In short, it runs like this: as §1
Experiment [7] deals with Gal(b1-4)GlcNAc(b1-2)Man(a1-3)[GlcNAc(b1-2)Man(a1-6)]Man(b1-4)GlcNAc(b1-4)GlcNAc. In short, it runs like this: as §1
Experiment [8] addresses Gal(b1-4)GlcNAc(b1-2)Man(a1-3)[GlcNAc(b1-4)][Gal(b1-4)GlcNAc(b1-2)Man(a1-6)]Man(b1-4)GlcNAc(b1-4)GlcNAc. In short, it runs like this:
as §1

Experiment [9] addresses Gal(b1-4)GlcNAc(b1-2)Man(a1-3)[Man(a1-6)]Man(b1-4)GlcNAc(b1-4)GlcNAc. A digest of the protocol: as §1
The target in experiment [10] is Gal(b1-4)GlcNAc(b1-2)Man(a1-6)Man(b1-4)GlcNAc(b1-4)GlcNAc. In short, it runs like this: as §1
The target in experiment [11] is Gal(b1-4)GlcNAc(b1-2)Man(a1-6)[GlcNAc(b1-2)Man(a1-3)]Man(b1-4)GlcNAc(b1-4)GlcNAc. A digest of the protocol: as §1
The target of experiment [12] is Gal(b1-4)GlcNAc(b1-2)Man(a1-6)[Man(a1-3)]Man(b1-4)GlcNAc(b1-4)GlcNAc. A digest of the protocol: as §1
The target in experiment [13] is Gal(b1-4)GlcNAc(b1-2)[Gal(b1-4)GlcNAc(b1-4)]Man(a1-3)[Gal(b1-4)GlcNAc(b1-2)Man(a1-6)]Man(b1-4)GlcNAc(b1-4)GlcNAc. In short, it runs like this: as §1
The target in experiment [14] is Gal(b1-4)GlcNAc(b1-2)[Gal(b1-4)GlcNAc(b1-4)]Man(a1-3)[Gal(b1-4)GlcNAc(b1-2)[Gal(b1-4)GlcNAc(b1-6)]Man(a1-6)]Man(b1-4)GlcNAc(b1-4)GlcNAc. A digest of the protocol:
as §1

The target in experiment [15] is Gal(b1-4)GlcNAc(b1-2)[Gal(b1-4)GlcNAc(b1-4)]Man(a1-3)[GlcNAc(b1-4)][Gal(b1-4)GlcNAc(b1-2)Man(a1-6)]Man(b1-4)GlcNAc(b1-4)GlcNAc. In short, it runs like this:
as §1

Experiment [16] addresses Gal(b1-4)GlcNAc(b1-2)[Gal(b1-4)GlcNAc(b1-4)]Man(a1-3)[GlcNAc(b1-4)][Gal(b1-4)GlcNAc(b1-2)[Gal(b1-4)GlcNAc(b1-6)]Man(a1-6)]Man(b1-4)GlcNAc(b1-4)GlcNAc. A digest of the protocol:
as §1

For experiment [17], the target named is Gal(b1-4)GlcNAc(b1-2)[Gal(b1-4)GlcNAc(b1-6)]Man(a1-6)[Gal(b1-4)GlcNAc(b1-2)Man(a1-3)]Man(b1-4)GlcNAc(b1-4)GlcNAc. A digest of the protocol: as §1
Experiment [18] concerns the target Gal(b1-4)GlcNAc(b1-2)[Gal(b1-4)GlcNAc(b1-6)]Man(a1-6)[Gal(b1-4)GlcNAc(b1-2)Man(a1-3)]Man(b1-4)GlcNAc(b1-4)[Fuc(a1-6)]GlcNAc. In short, it runs like this: as §1

The list shows a part of the results.

B1: Pwp5 ND (Candida glabrata) (protein)
chain: MGSSHHHHHHSSGLVPRGSHMASANPVPLTNVCYFPEEYPRQAGFRAITAGLASTILQGSVDELLNYSGLSSLTTQQTTTTTPNFQLPTLPLPTNVYGLTVVPLYLLVQLQGYFVPPVSGQYTFSLENTNDAAIIFFGNPSAFPCGDLSAWPQASADDITVTDGTFPSRTLFLKAGVAYPMRISYYNSLGSGNLAVSFTDPGGTKRTNWNGYIWRYNSCSTCTYT
As for B1, the “glycan array binding signal (z-score)” value with Gal(b1-4)Glc is -0.548; with Gal(b1-4)Glc6S it was 0.845; with Gal(b1-4)GlcNAc, -0.067; in [1], -0.689; with Gal(b1-4)GlcNAc(b1-2)Man it was 0.183; in experiment [2] it was 0.309. The “glycan array binding signal (z-score)” value in experiment [3] was -0.247; in [4] it was -0.336; in experiment [5] it was -0.557; in experiment [6] it was -0.486; in [7], -0.27; in [8], -0.512. For the same molecule, the “glycan array binding signal (z-score)” value in experiment [9] was 0.117; in experiment [10], 0.775; in experiment [11], -0.5; in [12], 0.111; in experiment [13] it was -0.291; in experiment [14], -0.544. Also, the “glycan array binding signal (z-score)” value in experiment [15] was -0.511; in experiment [16] it was -0.587; in experiment [17], -0.375; in experiment [18], -0.233.
